Laboratory results taken from the supplement of paper PMC4604168 (melanoma cell lines).
This is one part of the list. Single values are uncertain, as repeats are few or missing.

Columns and labels:
Test in all cases: cell count relative to DMSO control; melanoma cells; higher = more viable cells
Details in all cases: library dose: standard library concentration; 72 h
G361 = tested on: G361
IPC-298 = tested on: IPC-298
IST-MEL1 = tested on: IST-MEL1
LB2518-MEL = tested on: LB2518-MEL
LOXIMVI = tested on: LOXIMVI
MEL-HO = tested on: MEL-HO
MZ2-MEL = tested on: MZ2-MEL
MeWo = tested on: MeWo
RPMI7951 = tested on: RPMI7951
RVH-421 = tested on: RVH-421
SkMel28 = tested on: SkMel28
SkMel2 = tested on: SkMel2
SkMel30 = tested on: SkMel30
SkMel5 = tested on: SkMel5
UACC257 = tested on: UACC257
UACC62 = tested on: UACC62
WM115 = tested on: WM115
WM1716 = tested on: WM1716
WM3526 = tested on: WM3526
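Also: cells treated in 1,536-well plates, then fixed and DAPI-stained, with nuclei counted from automated high-throughput microscope images.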

Structure (SMILES): O=C(Nc1cc(C(F)(F)F)cc(C(F)(F)F)c1)c1cc(Cl)ccc1O + O=C(O)C(=O)Nc1sc2c(c1C(=O)O)CCNC2 [TCS401] (first compound 0.08 µM, partner dose 8.33333 µM)
- cell count (G361): 103%
- cell count (IPC-298): 98.9%
- cell count (IST-MEL1): 105%
- cell count (LB2518-MEL): 89.9%
- cell count (LOXIMVI): 140%
- cell count (MEL-HO): 91.4%
- cell count (MZ2-MEL): 96%
- cell count (MeWo): 118%
- cell count (RPMI7951): 131%
- cell count (RVH-421): 118%
- cell count (SkMel28): 108%
- cell count (SkMel2): 105%
- cell count (SkMel30): 152%
- cell count (SkMel5): 80.8%
- cell count (UACC257): 85.2%
- cell count (UACC62): 128%
- cell count (WM115): 88.1%
- cell count (WM1716): 98.2%
- cell count (WM3526): 105%

Structure (SMILES): O=C(Nc1cc(C(F)(F)F)cc(C(F)(F)F)c1)c1cc(Cl)ccc1O + O=C1NC(=O)/C(=C/c2ccc(-c3ccc(F)cc3O)o2)S1 [AS252424] (first compound 0.08 µM, partner dose 5 µM)
- cell count (G361): 80.4%
- cell count (IPC-298): 87.5%
- cell count (IST-MEL1): 82.1%
- cell count (LB2518-MEL): 94.3%
- cell count (LOXIMVI): 87.6%
- cell count (MEL-HO): 74.4%
- cell count (MZ2-MEL): 103%
- cell count (MeWo): 88.5%
- cell count (RPMI7951): 116%
- cell count (RVH-421): 88.9%
- cell count (SkMel28): 95.4%
- cell count (SkMel2): 96.9%
- cell count (SkMel30): 86.1%
- cell count (SkMel5): 82.5%
- cell count (UACC257): 85.9%
- cell count (UACC62): 107%
- cell count (WM115): 77.5%
- cell count (WM1716): 117%
- cell count (WM3526): 92.3%

Structure (SMILES): O=C(O)c1ccc2c(c1)nc(Nc1cccc(Cl)c1)c1ccncc12 + O=C(O)C(=O)Nc1sc2c(c1C(=O)O)CCNC2 [TCS401] (first compound 2 µM, partner dose 8.33333 µM)
- cell count (G361): 56.1%
- cell count (IPC-298): 79%
- cell count (IST-MEL1): 89.5%
- cell count (LB2518-MEL): 106%
- cell count (LOXIMVI): 79.8%
- cell count (MEL-HO): 68.4%
- cell count (MZ2-MEL): 74.2%
- cell count (MeWo): 79.7%
- cell count (RPMI7951): 92%
- cell count (RVH-421): 91%
- cell count (SkMel28): 77.1%
- cell count (SkMel2): 80.7%
- cell count (SkMel30): 84.2%
- cell count (SkMel5): 59.9%
- cell count (UACC257): 94.8%
- cell count (UACC62): 74.8%
- cell count (WM115): 106%
- cell count (WM1716): 92.3%
- cell count (WM3526): 75.5%

Structure (SMILES): O=C(O)c1ccc2c(c1)nc(Nc1cccc(Cl)c1)c1ccncc12 + CCN(CC)CCCCNc1ncc2cc(-c3cc(OC)cc(OC)c3)c(NC(=O)NC(C)(C)C)nc2n1 [PD173074] (first compound 2 µM, partner dose 0.5 µM)
- cell count (G361): 78.5%
- cell count (IPC-298): 75.1%
- cell count (IST-MEL1): 101%
- cell count (LB2518-MEL): 89.9%
- cell count (LOXIMVI): 72.3%
- cell count (MEL-HO): 65.1%
- cell count (MZ2-MEL): 67.5%
- cell count (MeWo): 83.8%
- cell count (RPMI7951): 88.2%
- cell count (RVH-421): 85.1%
- cell count (SkMel28): 91.5%
- cell count (SkMel2): 86.4%
- cell count (SkMel30): 96.4%
- cell count (SkMel5): 86.5%
- cell count (UACC257): 109%
- cell count (UACC62): 87.4%
- cell count (WM115): 97.3%
- cell count (WM1716): 101%
- cell count (WM3526): 88.6%

Structure (SMILES): O=C(O)c1ccc2c(c1)nc(Nc1cccc(Cl)c1)c1ccncc12 + COC(=O)c1sccc1S(=O)(=O)Nc1ccc(Nc2ccccc2)cc1OC [GSK0660] (first compound 2 µM, partner dose 5 µM)
- cell count (G361): 67%
- cell count (IPC-298): 76.6%
- cell count (IST-MEL1): 93.8%
- cell count (LB2518-MEL): 117%
- cell count (LOXIMVI): 66.6%
- cell count (MEL-HO): 58.9%
- cell count (MZ2-MEL): 51.9%
- cell count (MeWo): 92.1%
- cell count (RPMI7951): 76.7%
- cell count (RVH-421): 82.2%
- cell count (SkMel28): 89%
- cell count (SkMel2): 93.4%
- cell count (SkMel30): 80.1%
- cell count (SkMel5): 86.6%
- cell count (UACC257): 85.9%
- cell count (UACC62): 80.1%
- cell count (WM115): 97.3%
- cell count (WM1716): 102%
- cell count (WM3526): 71.7%

Structure (SMILES): O=C(O)[C@@H]1[O][Sb](=[O])([O][Sb]2(=[O])[O][C@H]([C@H](O)CO)[C@H](O)[C@H](C(=O)O)[O]2)[O][C@H]([C@H](O)CO)[C@@H]1O (stereo partly drawn) [stibogluconate] + Cc1cc([N+](=O)[O-])ccc1NS(=O)(=O)c1cc(Cl)ccc1Cl [FH535] (first compound 10 µM, partner dose 5 µM)
- cell count (G361): 36.9%
- cell count (IPC-298): 40.5%
- cell count (IST-MEL1): 51.1%
- cell count (LB2518-MEL): 65.3%
- cell count (LOXIMVI): 72.4%
- cell count (MEL-HO): 45.1%
- cell count (MZ2-MEL): 74.7%
- cell count (MeWo): 83.1%
- cell count (RPMI7951): 93.2%
- cell count (RVH-421): 54.6%
- cell count (SkMel28): 47.7%
- cell count (SkMel2): 75.3%
- cell count (SkMel30): 87%
- cell count (SkMel5): 84.4%
- cell count (UACC257): 65.9%
- cell count (UACC62): 84.4%
- cell count (WM115): 80.2%
- cell count (WM1716): 78.9%
- cell count (WM3526): 65%

Structure (SMILES): O=C(O)[C@@H]1[O][Sb](=[O])([O][Sb]2(=[O])[O][C@H]([C@H](O)CO)[C@H](O)[C@H](C(=O)O)[O]2)[O][C@H]([C@H](O)CO)[C@@H]1O (stereo partly drawn) [stibogluconate] + COc1ccc(-c2ccc3c(N4CCOCC4)nc(N4C[C@@H](C)O[C@@H](C)C4)nc3n2)cc1CO [KU0063794] (first compound 10 µM, partner dose 0.1 µM)
- cell count (G361): 87.7%
- cell count (IPC-298): 66.7%
- cell count (IST-MEL1): 102%
- cell count (LB2518-MEL): 84.8%
- cell count (LOXIMVI): 98.2%
- cell count (MEL-HO): 72.4%
- cell count (MZ2-MEL): 79.3%
- cell count (MeWo): 81.3%
- cell count (RPMI7951): 93.4%
- cell count (RVH-421): 49.2%
- cell count (SkMel28): 65.7%
- cell count (SkMel2): 81.6%
- cell count (SkMel30): 87.7%
- cell count (SkMel5): 61.4%
- cell count (UACC257): 105%
- cell count (UACC62): 93.4%
- cell count (WM115): 68.7%
- cell count (WM1716): 96%
- cell count (WM3526): 73.2%

Structure (SMILES): O=C(O)c1ccc2c(c1)nc(Nc1cccc(Cl)c1)c1ccncc12 + CCCCCCCCCCCC1=C(O)C(=O)C=C(O)C1=O [Embelin] (first compound 2 µM, partner dose 6 µM)
- cell count (G361): 76.4%
- cell count (IPC-298): 74.8%
- cell count (IST-MEL1): 61.6%
- cell count (LB2518-MEL): 102%
- cell count (LOXIMVI): 70.7%
- cell count (MEL-HO): 59.3%
- cell count (MZ2-MEL): 83.9%
- cell count (MeWo): 95.3%
- cell count (RPMI7951): 64.9%
- cell count (RVH-421): 69.8%
- cell count (SkMel28): 70.1%
- cell count (SkMel2): 75.1%
- cell count (SkMel30): 81.7%
- cell count (SkMel5): 83.1%
- cell count (UACC257): 84.5%
- cell count (UACC62): 71.8%
- cell count (WM115): 108%
- cell count (WM1716): 75.4%
- cell count (WM3526): 74.7%

Structure (SMILES): O=C(Nc1cc(C(F)(F)F)cc(C(F)(F)F)c1)c1cc(Cl)ccc1O + O=C(Nc1ccccc1)c1cc([N+](=O)[O-])ccc1Cl [GW9662] (first compound 0.08 µM, partner dose 10 µM)
- cell count (G361): 68.6%
- cell count (IPC-298): 83.6%
- cell count (IST-MEL1): 82.6%
- cell count (LB2518-MEL): 81.9%
- cell count (LOXIMVI): 142%
- cell count (MEL-HO): 80.7%
- cell count (MZ2-MEL): 79.3%
- cell count (MeWo): 75.4%
- cell count (RPMI7951): 84.4%
- cell count (RVH-421): 108%
- cell count (SkMel28): 86.5%
- cell count (SkMel2): 108%
- cell count (SkMel30): 78.8%
- cell count (SkMel5): 92.6%
- cell count (UACC257): 71.3%
- cell count (UACC62): 67.4%
- cell count (WM115): 81%
- cell count (WM1716): 86.6%
- cell count (WM3526): 84.9%

Structure (SMILES): O=C(O)[C@@H]1[O][Sb](=[O])([O][Sb]2(=[O])[O][C@H]([C@H](O)CO)[C@H](O)[C@H](C(=O)O)[O]2)[O][C@H]([C@H](O)CO)[C@@H]1O (stereo partly drawn) [stibogluconate] + O=C1NC(=O)/C(=C/c2ccc(-c3ccc(F)cc3O)o2)S1 [AS252424] (first compound 10 µM, partner dose 5 µM)
- cell count (G361): 94.4%
- cell count (IPC-298): 71.6%
- cell count (IST-MEL1): 97.9%
- cell count (LB2518-MEL): 74.5%
- cell count (LOXIMVI): 111%
- cell count (MEL-HO): 81.8%
- cell count (MZ2-MEL): 96.4%
- cell count (MeWo): 79.9%
- cell count (RPMI7951): 98.7%
- cell count (RVH-421): 106%
- cell count (SkMel28): 72.7%
- cell count (SkMel2): 98.9%
- cell count (SkMel30): 96%
- cell count (SkMel5): 92.1%
- cell count (UACC257): 110%
- cell count (UACC62): 95.3%
- cell count (WM115): 116%
- cell count (WM1716): 94.2%
- cell count (WM3526): 85.2%

Structure (SMILES): O=C(O)c1ccc2c(c1)nc(Nc1cccc(Cl)c1)c1ccncc12 + COc1ccc(-c2ccc3c(N4CCOCC4)nc(N4C[C@@H](C)O[C@@H](C)C4)nc3n2)cc1CO [KU0063794] (first compound 2 µM, partner dose 0.1 µM)
- cell count (G361): 54.7%
- cell count (IPC-298): 61.8%
- cell count (IST-MEL1): 84.1%
- cell count (LB2518-MEL): 98.3%
- cell count (LOXIMVI): 49%
- cell count (MEL-HO): 58.6%
- cell count (MZ2-MEL): 73.7%
- cell count (MeWo): 74%
- cell count (RPMI7951): 69.2%
- cell count (RVH-421): 81.9%
- cell count (SkMel28): 60.6%
- cell count (SkMel2): 71.2%
- cell count (SkMel30): 77.2%
- cell count (SkMel5): 62%
- cell count (UACC257): 98.2%
- cell count (UACC62): 80.6%
- cell count (WM115): 69.9%
- cell count (WM1716): 88.2%
- cell count (WM3526): 63.8%

Structure (SMILES): O=C(Nc1cc(C(F)(F)F)cc(C(F)(F)F)c1)c1cc(Cl)ccc1O + Oc1nc(-c2ccc(C(F)(F)F)cc2)nc2c1CSCC2 [XAV939] (first compound 0.08 µM, partner dose 10 µM)
- cell count (G361): 81.4%
- cell count (IPC-298): 74.9%
- cell count (IST-MEL1): 91.4%
- cell count (LB2518-MEL): 93%
- cell count (LOXIMVI): 129%
- cell count (MEL-HO): 78.3%
- cell count (MZ2-MEL): 97.2%
- cell count (MeWo): 85.3%
- cell count (RPMI7951): 87.9%
- cell count (RVH-421): 83.8%
- cell count (SkMel28): 67.3%
- cell count (SkMel2): 89.4%
- cell count (SkMel30): 117%
- cell count (SkMel5): 63.6%
- cell count (UACC257): 85.6%
- cell count (UACC62): 73.2%
- cell count (WM115): 90.3%
- cell count (WM1716): 61.2%
- cell count (WM3526): 94.4%
